Test results: PMC4336329 (PLoS ONE, 2015)
About 14,000 (4.5%) of roughly 310,000 compounds showed an effect of 50% or more. Effects have a minus sign here. Some of the results follow.

Molecular target: human ether-à-go-go-related gene (hERG) potassium channel (human, UniProt Q12809)
Experiment: primary screen, population patch clamp on CHO cells stably expressing hERG
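Note: peak tail current of the secondary pulse compared with the same well before compound.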

Sequence of human ether-à-go-go-related gene (hERG) potassium channel (Q12809 whole entry, looked up): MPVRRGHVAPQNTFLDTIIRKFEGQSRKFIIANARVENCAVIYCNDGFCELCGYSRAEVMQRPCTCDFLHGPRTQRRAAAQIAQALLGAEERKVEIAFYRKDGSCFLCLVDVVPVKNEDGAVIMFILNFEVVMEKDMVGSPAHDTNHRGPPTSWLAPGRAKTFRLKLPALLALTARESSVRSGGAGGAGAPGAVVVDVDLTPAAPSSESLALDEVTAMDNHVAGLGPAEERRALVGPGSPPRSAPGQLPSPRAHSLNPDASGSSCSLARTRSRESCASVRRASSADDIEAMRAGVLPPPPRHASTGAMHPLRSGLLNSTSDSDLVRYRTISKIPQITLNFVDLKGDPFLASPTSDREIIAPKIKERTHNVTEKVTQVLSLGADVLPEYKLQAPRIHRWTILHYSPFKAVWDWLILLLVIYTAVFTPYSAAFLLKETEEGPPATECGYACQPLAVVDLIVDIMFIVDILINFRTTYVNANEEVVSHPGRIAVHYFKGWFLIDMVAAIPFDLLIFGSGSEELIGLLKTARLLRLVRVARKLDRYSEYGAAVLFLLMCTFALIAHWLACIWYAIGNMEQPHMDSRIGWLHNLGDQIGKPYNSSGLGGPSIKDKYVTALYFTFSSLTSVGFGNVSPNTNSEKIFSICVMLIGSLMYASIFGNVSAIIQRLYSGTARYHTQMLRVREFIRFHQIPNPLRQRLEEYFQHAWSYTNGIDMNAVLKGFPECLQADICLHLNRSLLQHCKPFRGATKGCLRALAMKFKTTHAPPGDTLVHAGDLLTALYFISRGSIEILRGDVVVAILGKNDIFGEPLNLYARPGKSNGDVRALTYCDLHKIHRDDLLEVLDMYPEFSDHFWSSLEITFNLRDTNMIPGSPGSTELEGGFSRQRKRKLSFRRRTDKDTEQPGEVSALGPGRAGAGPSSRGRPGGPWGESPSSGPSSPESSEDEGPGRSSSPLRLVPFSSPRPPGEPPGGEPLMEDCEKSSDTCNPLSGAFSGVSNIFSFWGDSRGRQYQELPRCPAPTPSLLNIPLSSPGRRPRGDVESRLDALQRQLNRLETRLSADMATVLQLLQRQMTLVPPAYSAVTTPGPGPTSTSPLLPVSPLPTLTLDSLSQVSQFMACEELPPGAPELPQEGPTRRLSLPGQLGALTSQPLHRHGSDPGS

Point of comparison: `CC1(c2nnc(-c3ccccc3)o2)CC(c2ccccc2)=NO1` (centres unmarked), “hERG current change (%, negative = inhibition) at 10uM” value -11.6%. Against it:
- CC(CCc1ccc(O)cc1)N1CCC(Oc2ccc(C(=O)N3CCCC3)cc2)CC1 (centres unmarked) — lower, -55.7%
- COc1cc(NS(=O)(=O)c2ccc(F)cc2)c(OC)cc1NC(C)=O — higher, 2.46%
- CCC(=O)NNC(=O)c1cc(COc2cc(Cl)cc(Cl)c2)on1 — higher, 8.64%
- COc1cccc(CC2(CO)CCCN(Cc3ccccc3-c3ccco3)C2)c1 (centres unmarked) — lower, -75.8%
- CCCCC(=O)Nc1ccc(C(=O)NCCc2ccc(S(N)(=O)=O)cc2)cc1 — higher, 23.2%
- O=S(=O)(c1ccc(Br)cc1)c1cnc2ccccc2n1 — higher, -2.37%
- Nc1nc(O)c(N=Nc2ccc(S(N)(=O)=O)cc2)c(=O)[nH]1 — higher, 20.4%
- COc1ccc(-c2noc(CCCC(=O)O)n2)cc1 — higher, -3.93%
- O=C(Nc1ccccc1N1CCCCC1)c1cccc(F)c1 — higher, -3.29%
- O=C(NC1CCCCC1)N1CCc2ccccc21 — higher, -8.44%
- CCc1ccccc1NS(=O)(=O)c1ccc2c(c1)NC(=O)CC(=O)N2 — higher, 5.13%
- CCC(=O)OCC(=O)N=c1sccn1Cc1ccccc1Cl — higher, 6.32%
- O=C(NN1CCOCC1)c1ccc(Cl)c([N+](=O)[O-])c1 — higher, 4.8%
- COc1cc(OC)cc(C(=O)Nc2sc3c(c2C(N)=O)CCC3)c1 — higher, 25.8%
- CCOc1ccc(CCNC(=O)COC(=O)COc2ccc(C(C)=O)cc2)cc1OCC — higher, -1.52%
- COc1ccc(C(=O)c2ccc(OC)c3cccc(O)c23)cc1OC — higher, -6.79%
- COc1ccc(N2CCN(C(=S)Nc3cccc(C)c3C)CC2)cc1 — higher, 8.84%
- Cc1ccc(C(C)C)cc1C(=O)CC1(O)C(=O)N(C)c2ccccc21 (centres unmarked) — higher, 7.46%
- O=C(CC1C(=O)NCCN1Cc1ccccc1C(F)(F)F)NC1CCCCC1 (centres unmarked) — higher, 14.6%
- CC1=C(C(=O)OCc2ccccc2)C(c2ccccc2-c2ccccc2)NC(=O)N1CCCCCC(=O)O (centres unmarked) — lower, -63.1%
- C/C=C/c1ccc(OCC(O)CN2CCCCC2CC)c(OC)c1 (centres unmarked) — lower, -43.9%
- COc1ccc2cc3cc(C(=O)N4CCN(c5ccccn5)CC4)oc3nc2c1 — higher, -6.87%
- COc1ccccc1-n1c(=O)c2c3c(sc2n2c(SC)nnc12)CCC3 — lower, -12.5%
- CCS(=O)(=O)N1CCN(Cc2ccc([N+](=O)[O-])cc2)CC1.O=C(O)C(=O)O — lower, -44.4%
- COc1cccc(NC(=O)c2ccnc(N3CCC(C(=O)NCc4ccccc4OC)CC3)c2)c1 — lower, -18.8%
- O=C(CN1C(=O)CC(c2ccccc2)S(=O)(=O)c2ccccc21)N1CCOCC1 (centres unmarked) — higher, 19.1%
- CCn1c(C)nc2cc(C(=O)NNC(=S)Nc3ccccc3Cl)ccc21 — higher, 5.86%
- CC1(C)CC(=O)C=C(c2ccc(-c3ccccc3)cc2)C1 — higher, 19.1%
- CC1CCC(NC(=O)CN(C)S(=O)(=O)c2cccc3cccnc23)CC1 (centres unmarked) — higher, -10.4%
- CCC(C)(C)n1nnnc1C(c1cccnc1)N1CCN(c2cccc(C(F)(F)F)c2)CC1 (centres unmarked) — lower, -41%
- OC1(c2ccccc2F)CCN(Cc2nnnn2Cc2ccc(F)cc2)CC1 — higher, 8.52%
- O=C(NC1CCCCCC1)c1ccc[nH]c1=S — higher, 31.1%
- CCN(CC)C(=O)Cn1cc(SCC(=O)NC2CCCC2)c2ccccc21 — lower, -36.9%
- Cc1cccc(C)c1NC(=O)COC(=O)c1cccc2c1C(=O)c1ccccc1C2=O — higher, 2.12%
- Cc1[nH]c(=S)c(C#N)c(-c2ccco2)c1C(=O)N(C)C — higher, 19.8%
- CCC1(c2ccccc2)NC(=O)N(CC(=O)NCc2ccc(OC)cc2)C1=O (centres unmarked) — higher, 13.9%
- C=CCn1c(COc2ccccc2)nnc1SCc1ccc(C#N)cc1 — lower, -68.2%
- CC(C)NCCCOc1ccc(Cl)cc1Br.O=C(O)C(=O)O — lower, -54.4%
- Cc1ccc2cc(C#N)c(NCc3ccccc3)nc2c1 — higher, 9.69%
- CC(=O)c1c(C(C)=O)c(C)n(NC(=O)c2ccncc2)c1C — higher, 8.37%
- c1cc(CNCCc2ccc3c(c2)OCO3)ccn1 — higher, 18.3%
- COc1ccc(NC(=O)NCCN2CCN(c3cccc(Cl)c3)CC2)cc1 — lower, -31.6%
- CC(=O)CSc1nc(N(C)C)nc(N(C)C)n1 — higher, -5.75%
